We go through 14 molecules from publication PMC12136788.

This is one part of the list.

First the molecules themselves.
B1: chr14:92131016:92131127:+|CDS|ENSG00000165934|unk|FALSE|bound_elsewhere (ssRNA)
RNA: GGGAGUUCUACAGUCCGACGAUCACCCUUUCUGGGGUCCAAGAAGAAUCUGCCCUUUGCUAUCUUCUCCAAGUUGAUGAGUUUAGAUUUUUAUUGGACUGUGGCUGGGAUGAGCACUUUUCUAUGGAUAUUAUUGAUUCCCUGCAACAGAGGAUUGAGCAUCA
B2: chr1:55154109:55154210:-|CDS|ENSG00000162402|msi1|FALSE|unique (ssRNA)
RNA: GGGAGUUCUACAGUCCGACGAUCCCUUAGUGAUGCAUAUGCAGUGAAAGAAGCAAUCAAGAGGAGCUACAUCAUCAAGUGCAUAGAAGAUAUUAAGAGGGUUGGUUUCAGCUUUUAUCUGAUUUUGUUGUUAGAGCAACAGUACAACAGAGGAUUGAGCAUCA
B3: chr3:121431430:121432303:-|three_prime_utr|ENSG00000051341|control|control|control (ssRNA)
RNA: GGGAGUUCUACAGUCCGACGAUCUGGAAAGAACAGAGAUUACCCUUUCACCUACCUCAGCAAAACAAACUUUCAAGUCUUGAUAGACUUAGCCUAGUAAUUUUAUAGUGAGAGUUUCAAACUAUAUAUCAGUGUCUAUAGCAUCAACAGAGGAUUGAGCAUCA
B4: chr12:3284911:3285012:+|3pUTR|ENSG00000011105|msi1|total|mutant (ssRNA)
RNA: GGGAGUUCUACAGUCCGACGAUCGGAGGACAGAACCGUUGGCAUUAUCAGGAUUCGUGUUUUGUGGGGGUGGGAGUGGAGAGCCGGGUGGUCUUGUGAGUUGUGCAGGGUGAAGACCGCUUCCCUGAGACAGGGGCAGUGGUGCAACAGAGGAUUGAGCAUCA
B5: ENSG00000107863:be:win_351|CDS|ENSG00000107863|bound_else_gene|NA|bound_elsewhere_windowed (ssRNA)
RNA: GGGAGUUCUACAGUCCGACGAUCAUUAUGUACAGGUGACCGAAUUAUAAAAGUCAAUGGAGAAAGUGUUAUUGGCAAAACCUAUUCCCAAGUAAUUGCUUUAAUUCAAAACAGUGAUACAACAUUGGAACUUAGUGUUAUGCCCAACAGAGGAUUGAGCAUCA
B6: chr2:85598546:85599075:-|three_prime_utr|ENSG00000168890|control|control|control (ssRNA)
RNA: GGGAGUUCUACAGUCCGACGAUCAAGCCAGACCACUGGGGUUUCCUGCUGCAGGAAUUGGGGGCUGGGAACAGCAGAGGGGAUAGAAGUCUGGUGGAGGUGGAGUGGGCACGCCUUAGCCUACGGAAAGGCCCAUUUCUGGGCCAACAGAGGAUUGAGCAUCA
B7: chr1:109062750:109062855:-|3pUTR|ENSG00000197780|unk|total|mutant (ssRNA)
RNA: GGGAGUUCUACAGUCCGACGAUCGCUUUCAGCCGCAGGAAUGGCAUUGUUUAAAAAGCUGAUGGCAGGGUAAGCAUUUGGGUCCGUGUUUUAUUAACAUAUUUGUAAGUACUUGUUCAUUGUGGAAAUGUGUCCUUGACUAAACAACAGAGGAUUGAGCAUCA
B8: chr7:98206920:98207021:+|3pUTR|ENSG00000164715|unk|FALSE|unique (ssRNA)
RNA: GGGAGUUCUACAGUCCGACGAUCGUUCUGCAUUAAGCCCCAGGUUCUCUUCUGGCUUUGAAAGGGCCCGAGUGCUCCCAGUGUAGCUUCGUCACAUCGUCACGAGCCCCUGUGGUCAUGGGCGACCUCACACCUCCCUCCCUGCAACAGAGGAUUGAGCAUCA
B9: chr10:15076986:15077088:-|3pUTR|ENSG00000176244|unk|FALSE|unique (ssRNA)
RNA: GGGAGUUCUACAGUCCGACGAUCUUUUCCUUUAAGAAGAUACCCAGUAGUGGGAUUGCUGGGUAGAAUGGUAGUUCUAUUUUUAGUUCCAUGAGAAAUUUCCGUGCUGUUUUUCAUAGAGGUUGUACUAAUUUACAUUCCCACCAACAGAGGAUUGAGCAUCA
B10: ENSG00000089057:stop:overlap|stop_codon|ENSG00000089057|stop_codon|NA|stop_codon (ssRNA)
RNA: GGGAGUUCUACAGUCCGACGAUCAAGGCCUCAGGAAGAGCGACAACAGCCGGAGUUCAGAUGAAGACUCCCAGGCCACGGGAUAGCCUUUGCUGUGCCCUGUGGCCUGGCCGCAGUGAGGCAUGUAUCUGUAGUUCCUUGCUGCAACAGAGGAUUGAGCAUCA
B11: chr1:225419324:225419425:-|CDS|ENSG00000143815|msi1|total|mutant (ssRNA)
RNA: GGGAGUUCUACAGUCCGACGAUCUUACACCGCAACACAGUACCGCCUUCGUCCAAGAAGAGAAGAAGUCAAAUUAAAAGAAACCGAUUCUAAGGAAGAAAAAUACGUUGCAAAAGAACUGGCAGUGAGAACCUUUGAAGUGACCAACAGAGGAUUGAGCAUCA
B12: chr1:161190761:161190881:-|3pUTR|ENSG00000158859|msi1|total|mutant (ssRNA)
RNA: GGGAGUUCUACAGUCCGACGAUCUGCGGGUCACAGGAGGGAGGGGGAAGGCAGGGAGGGCCUGGGCCCCAGUUGUAUUUAUUCCGUAUUUAUUCACUUUUAUUCCGCACCAGGGAAGGGGACAAGGACCCGGGUCCUGGGGAACAACAGAGGAUUGAGCAUCA
B13: chr15:44562695:44563301:-|three_prime_utr|ENSG00000104133|control|control|control (ssRNA)
RNA: GGGAGUUCUACAGUCCGACGAUCUGAAAUUGUAAAUGUGCUUCUGAAGGACCCUCAGACAGGUUGCUGUCUAAAGGACAUGCUAGCAGGUUAGAUGAUUUCAUAGGUGUCUGUUUUCUUGUACUGUUAGCAGAUUCUGACAGACAACAGAGGAUUGAGCAUCA
B14: chr7:47276374:47276475:-|3pUTR|ENSG00000136205|msi1|total|mutant (ssRNA)
RNA: GGGAGUUCUACAGUCCGACGAUCCUGGGGUUUGGGAAUGUGCUUUGUGAACUCUGCUUUAAAGUGAGGGGCCGAGGAAAACUCCGAAACAGGCAGAGUUGGAAGCAGCCAAAUCACAGUGGGUGUUGUGUGUGUGUGCGUGUGCAACAGAGGAUUGAGCAUCA

In this experiment the target is MSI1 full-length (mouse, UniProt Q61474 1-362). The experiment is described as follows: nsRBNS (natural sequence RNA bind-n-seq); RBNS binding buffer (assumed for nsRBNS): 25 mM Tris pH 7.5, 150 mM KCl, 3 mM MgCl2, 0.01% Triton X-100, 500 ug/ml BSA, 20 U/ml SUPERase-In, 4 C; UNK is unkempt and MSI1 is Musashi-1; names of the RNAs are library labels; protein concentration not given here; high values mean tight binding.
Sequence of UniProt Q61474 (Q61474 whole entry): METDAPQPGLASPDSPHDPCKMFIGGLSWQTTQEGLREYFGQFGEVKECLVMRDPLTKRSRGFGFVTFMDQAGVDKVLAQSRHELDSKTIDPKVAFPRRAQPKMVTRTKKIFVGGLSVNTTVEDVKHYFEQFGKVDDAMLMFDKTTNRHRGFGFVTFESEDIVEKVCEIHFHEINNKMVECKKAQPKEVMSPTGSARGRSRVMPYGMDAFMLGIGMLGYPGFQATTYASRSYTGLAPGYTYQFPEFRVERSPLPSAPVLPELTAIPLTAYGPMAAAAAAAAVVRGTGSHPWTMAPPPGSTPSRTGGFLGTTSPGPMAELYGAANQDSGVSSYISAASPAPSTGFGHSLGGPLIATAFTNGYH
For B1, the binding signal was 0.346 enrichment R.

For the molecule B2, the binding signal turned out to be 0.478 enrichment R.

B3 displayed a binding signal of 17.4 enrichment R.

B4 came in with a binding signal of 0.676 enrichment R.

Consider B5, for which the binding signal amounted to 0.444 enrichment R.

As for B6, the binding signal was determined as 0.462 enrichment R.

Take B7: the binding signal came out at 0.644 enrichment R.

Consider B8, for which the binding signal worked out at 0.858 enrichment R.

With B9, the binding signal was 6.19 enrichment R.

As to B10, the binding signal was determined as 4.03 enrichment R.

Take B11: the binding signal is 0.304 enrichment R.

Molecule B12 registered a binding signal of 1.51 enrichment R.

The molecule B13 came in with a binding signal of 0.442 enrichment R.

Molecule B14 registered a binding signal of 0.605 enrichment R.
